# Some of the results follow.
# B1: Si Bti9 1b-HA (Solanum lycopersicum) (protein)
# chain: MFESRPRSVLSLGVFVILVYLSSVPLPVNSQCNRGCDLALASFYVWRGSNLTLISEMFSTSIADIVSYNNRDNIPNQDSVIAGTRINIPFRCDCLNDGEVLGHAFPYRVKSGDTYDLVARNYSDLTTAQWMMKFNSYPENNIPNTVNLSVVVNCSCGNSDVSKDFGLFVTYPVRAEDNLTSVASAANVSEDIIRRYNPAAVSILDIGQGIIYIPGRDRNGNFPPLPTSTDGLSGGAKAPLFFNPAFLYKVVELKLAGRSRTSGYPYDVPDYAGYPYDVPDYALEVLFQ
# Assays:
# Assay in all cases: glycan array binding signal (z-score within array); higher = stronger binding
# Details in all cases: glycan notation: IUPAC condensed, linker removed
# [1] = target: Gal(b1-4)GlcNAc(b1-2)[Gal(b1-4)GlcNAc(b1-6)]Man(a1-6)[GlcNAc(b1-4)][Gal(b1-4)GlcNAc(b1-2)Man(a1-3)]Man(b1-4)GlcNAc(b1-4)GlcNAc
# How it was run: (§1)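 The Consortium for Functional Glycomics database supplied 3228 glycan arrays, of which those lacking an available protein sequence were dropped. The binding signal, a within-array Z-score, was averaged across arrays of the same protein sequence and across linkers. Negative scores can be read as non-binding.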
# [2] = target: Gal(b1-4)GlcNAc(b1-2)[Gal(b1-4)GlcNAc(b1-6)]Man(a1-6)[GlcNAc(b1-4)][Gal(b1-4)GlcNAc(b1-2)[Gal(b1-4)GlcNAc(b1-4)]Man(a1-3)]Man(b1-4)GlcNAc(b1-4)[Fuc(a1-6)]GlcNAc
# How it was run: as §1
# [3] = target: Gal(b1-4)GlcNAc(b1-3)Gal(b1-3)GalNAc
# How it was run: as §1
# [4] = target: Gal(b1-4)GlcNAc(b1-3)Gal(b1-3)GlcNAc
# How it was run: as §1
# [5] = target: Gal(b1-4)GlcNAc(b1-3)Gal(b1-4)Glc
# How it was run: as §1
# [6] = target: Gal(b1-4)GlcNAc(b1-3)Gal(b1-4)GlcNAc
# How it was run: as §1
# [7] = target: Gal(b1-4)GlcNAc(b1-3)Gal(b1-4)GlcNAc(b1-2)Man(a1-3)[Gal(b1-4)GlcNAc(b1-3)Gal(b1-4)GlcNAc(b1-2)Man(a1-6)]Man(b1-4)GlcNAc(b1-4)GlcNAc
# How it was run: as §1
# [8] = target: Gal(b1-4)GlcNAc(b1-3)Gal(b1-4)GlcNAc(b1-2)Man(a1-3)[Gal(b1-4)GlcNAc(b1-3)Gal(b1-4)GlcNAc(b1-2)Man(a1-6)]Man(b1-4)GlcNAc(b1-4)[Fuc(a1-6)]GlcNAc
# How it was run: as §1
# [9] = target: Gal(b1-4)GlcNAc(b1-3)Gal(b1-4)GlcNAc(b1-2)[Gal(b1-4)GlcNAc(b1-3)Gal(b1-4)GlcNAc(b1-6)]Man(a1-6)[Gal(b1-4)GlcNAc(b1-3)Gal(b1-4)GlcNAc(b1-2)Man(a1-3)]Man(b1-4)GlcNAc(b1-4)GlcNAc
# How it was run: as §1
# [10] = target: Gal(b1-4)GlcNAc(b1-3)Gal(b1-4)GlcNAc(b1-2)[Gal(b1-4)GlcNAc(b1-3)Gal(b1-4)GlcNAc(b1-6)]Man(a1-6)[Gal(b1-4)GlcNAc(b1-3)Gal(b1-4)GlcNAc(b1-2)Man(a1-3)]Man(b1-4)GlcNAc(b1-4)[Fuc(a1-6)]GlcNAc
# How it was run: as §1
# [11] = target: Gal(b1-4)GlcNAc(b1-3)Gal(b1-4)GlcNAc(b1-3)Gal(b1-4)GlcNAc
# How it was run: as §1
# [12] = target: Gal(b1-4)GlcNAc(b1-3)Gal(b1-4)GlcNAc(b1-3)Gal(b1-4)GlcNAc(b1-2)Man(a1-3)[Gal(b1-4)GlcNAc(b1-3)Gal(b1-4)GlcNAc(b1-3)Gal(b1-4)GlcNAc(b1-2)Man(a1-6)]Man(b1-4)GlcNAc(b1-4)GlcNAc
# How it was run: as §1
# [13] = target: Gal(b1-4)GlcNAc(b1-3)Gal(b1-4)GlcNAc(b1-3)Gal(b1-4)GlcNAc(b1-2)Man(a1-3)[Gal(b1-4)GlcNAc(b1-3)Gal(b1-4)GlcNAc(b1-3)Gal(b1-4)GlcNAc(b1-2)Man(a1-6)]Man(b1-4)GlcNAc(b1-4)[Fuc(a1-6)]GlcNAc
# How it was run: as §1
# [14] = target: Gal(b1-4)GlcNAc(b1-3)Gal(b1-4)GlcNAc(b1-3)Gal(b1-4)GlcNAc(b1-2)[Gal(b1-4)GlcNAc(b1-3)Gal(b1-4)GlcNAc(b1-3)Gal(b1-4)GlcNAc(b1-6)]Man(a1-6)[Gal(b1-4)GlcNAc(b1-3)Gal(b1-4)GlcNAc(b1-3)Gal(b1-4)GlcNAc(b1-2)Man(a1-3)]Man(b1-4)GlcNAc(b1-4)[Fuc(a1-6)]GlcNAc
# How it was run: as §1
# [15] = target: Gal(b1-4)GlcNAc(b1-3)Gal(b1-4)GlcNAc(b1-3)Gal(b1-4)GlcNAc(b1-3)Gal(b1-4)GlcNAc(b1-2)Man(a1-3)[Gal(b1-4)GlcNAc(b1-3)Gal(b1-4)GlcNAc(b1-3)Gal(b1-4)GlcNAc(b1-3)Gal(b1-4)GlcNAc(b1-2)Man(a1-6)]Man(b1-4)GlcNAc(b1-4)GlcNAc
# How it was run: as §1
# [16] = target: Gal(b1-4)GlcNAc(b1-3)Gal(b1-4)GlcNAc(b1-3)Gal(b1-4)GlcNAc(b1-3)Gal(b1-4)GlcNAc(b1-2)Man(a1-3)[Gal(b1-4)GlcNAc(b1-3)Gal(b1-4)GlcNAc(b1-3)Gal(b1-4)GlcNAc(b1-3)Gal(b1-4)GlcNAc(b1-2)Man(a1-6)]Man(b1-4)GlcNAc(b1-4)[Fuc(a1-6)]GlcNAc
# How it was run: as §1
# [17] = target: Gal(b1-4)GlcNAc(b1-3)Gal(b1-4)GlcNAc(b1-3)Gal(b1-4)GlcNAc(b1-3)Gal(b1-4)GlcNAc(b1-2)[Gal(b1-4)GlcNAc(b1-3)Gal(b1-4)GlcNAc(b1-3)Gal(b1-4)GlcNAc(b1-3)Gal(b1-4)GlcNAc(b1-6)]Man(a1-6)[Gal(b1-4)GlcNAc(b1-3)Gal(b1-4)GlcNAc(b1-3)Gal(b1-4)GlcNAc(b1-3)Gal(b1-4)GlcNAc(b1-2)Man(a1-3)]Man(b1-4)GlcNAc(b1-4)[Fuc(a1-6)]GlcNAc
# How it was run: as §1
# [18] = target: Gal(b1-4)GlcNAc(b1-3)Gal(b1-4)GlcNAc(b1-3)Gal(b1-4)GlcNAc(b1-3)Gal(b1-4)GlcNAc(b1-3)Gal(b1-4)GlcNAc(b1-2)Man(a1-3)[Gal(b1-4)GlcNAc(b1-3)Gal(b1-4)GlcNAc(b1-3)Gal(b1-4)GlcNAc(b1-3)Gal(b1-4)GlcNAc(b1-3)Gal(b1-4)GlcNAc(b1-2)Man(a1-6)]Man(b1-4)GlcNAc(b1-4)GlcNAc
# How it was run: as §1
# [19] = target: Gal(b1-4)GlcNAc(b1-3)Gal(b1-4)GlcNAc(b1-3)Gal(b1-4)GlcNAc(b1-3)Gal(b1-4)GlcNAc(b1-3)Gal(b1-4)GlcNAc(b1-2)Man(a1-3)[Gal(b1-4)GlcNAc(b1-3)Gal(b1-4)GlcNAc(b1-3)Gal(b1-4)GlcNAc(b1-3)Gal(b1-4)GlcNAc(b1-3)Gal(b1-4)GlcNAc(b1-2)Man(a1-6)]Man(b1-4)GlcNAc(b1-4)[Fuc(a1-6)]GlcNAc
# How it was run: as §1
# [20] = target: Gal(b1-4)GlcNAc(b1-3)Gal(b1-4)GlcNAc(b1-3)Gal(b1-4)GlcNAc(b1-3)Gal(b1-4)GlcNAc(b1-3)Gal(b1-4)GlcNAc(b1-2)[Gal(b1-4)GlcNAc(b1-3)Gal(b1-4)GlcNAc(b1-3)Gal(b1-4)GlcNAc(b1-3)Gal(b1-4)GlcNAc(b1-3)Gal(b1-4)GlcNAc(b1-6)]Man(a1-6)[Gal(b1-4)GlcNAc(b1-3)Gal(b1-4)GlcNAc(b1-3)Gal(b1-4)GlcNAc(b1-3)Gal(b1-4)GlcNAc(b1-3)Gal(b1-4)GlcNAc(b1-2)Man(a1-3)]Man(b1-4)GlcNAc(b1-4)[Fuc(a1-6)]GlcNAc
# How it was run: as §1
# [21] = target: Gal(b1-4)GlcNAc(b1-3)Gal(b1-4)GlcNAc(b1-3)Gal(b1-4)GlcNAc(b1-3)Gal(b1-4)GlcNAc(b1-3)Gal(b1-4)GlcNAc(b1-3)Gal(b1-4)GlcNAc(b1-2)Man(a1-3)[Gal(b1-4)GlcNAc(b1-3)Gal(b1-4)GlcNAc(b1-3)Gal(b1-4)GlcNAc(b1-3)Gal(b1-4)GlcNAc(b1-3)Gal(b1-4)GlcNAc(b1-3)Gal(b1-4)GlcNAc(b1-2)Man(a1-6)]Man(b1-4)GlcNAc(b1-4)GlcNAc
# How it was run: as §1
# [22] = target: Gal(b1-4)GlcNAc(b1-3)Gal(b1-4)GlcNAc(b1-3)GalNAc
# How it was run: as §1
# [23] = target: Gal(b1-4)GlcNAc(b1-3)Gal(b1-4)GlcNAc(b1-3)[Gal(b1-4)GlcNAc(b1-3)Gal(b1-4)GlcNAc(b1-6)]GalNAc
# How it was run: as §1
# [24] = target: Gal(b1-4)GlcNAc(b1-3)Gal(b1-4)GlcNAc(b1-6)[Gal(b1-3)]GalNAc
# How it was run: as §1
# [25] = target: Gal(b1-4)GlcNAc(b1-3)Gal(b1-4)[Fuc(a1-3)]GlcNAc(b1-3)Gal(b1-4)[Fuc(a1-3)]GlcNAc
# How it was run: as §1
# [26] = target: Gal(b1-4)GlcNAc(b1-3)GalNAc
# How it was run: as §1
# [27] = target: Gal(b1-4)GlcNAc(b1-3)[Fuc(a1-3)GlcNAc(b1-6)]Gal(b1-4)Glc
# How it was run: as §1
# [28] = target: Gal(b1-4)GlcNAc(b1-3)[Gal(b1-4)GlcNAc(b1-6)]Gal(b1-4)GlcNAc
# How it was run: as §1
# [29] = target: Gal(b1-4)GlcNAc(b1-3)[GlcNAc(b1-6)]Gal(b1-4)GlcNAc
# How it was run: as §1
# [30] = target: Gal(b1-4)GlcNAc(b1-6)Gal(b1-4)GlcNAc
# How it was run: as §1
# [31] = target: Gal(b1-4)GlcNAc(b1-6)GalNAc
# How it was run: as §1
# [32] = target: Gal(b1-4)GlcNAc(b1-6)[Gal(b1-3)]GalNAc
# How it was run: as §1
# [33] = target: Gal(b1-4)GlcNAc(b1-6)[Gal(b1-4)GlcNAc(b1-3)]GalNAc
# How it was run: as §1
# Gal(b1-4)GlcNAc6P = target: Gal(b1-4)GlcNAc6P
# How it was run: as §1
# Gal(b1-6)Gal = target: Gal(b1-6)Gal
# How it was run: as §1
# Gal3S(b1-3)GalNAc = target: Gal3S(b1-3)GalNAc
# How it was run: as §1
# Gal3S(b1-3)GlcNAc = target: Gal3S(b1-3)GlcNAc
# How it was run: as §1
# [34] = target: Gal3S(b1-3)[Fuc(a1-4)]GlcNAc
# How it was run: as §1
binder,measurement,setting,value
B1,glycan array binding signal (z-score),[1],-0.363
same,glycan array binding signal (z-score),[2],-0.334
same,glycan array binding signal (z-score),[3],-0.16
same,glycan array binding signal (z-score),[4],-0.442
same,glycan array binding signal (z-score),[5],-0.183
same,glycan array binding signal (z-score),[6],-0.346
same,glycan array binding signal (z-score),[7],3.44
same,glycan array binding signal (z-score),[8],-0.143
same,glycan array binding signal (z-score),[9],2.69
same,glycan array binding signal (z-score),[10],-0.1
same,glycan array binding signal (z-score),[11],-0.222
same,glycan array binding signal (z-score),[12],1.66
same,glycan array binding signal (z-score),[13],0.042
same,glycan array binding signal (z-score),[14],0.132
same,glycan array binding signal (z-score),[15],0.03
same,glycan array binding signal (z-score),[16],0.285
same,glycan array binding signal (z-score),[17],0.268
same,glycan array binding signal (z-score),[18],0.163
same,glycan array binding signal (z-score),[19],-0.115
same,glycan array binding signal (z-score),[20],0.031
same,glycan array binding signal (z-score),[21],-0.028
same,glycan array binding signal (z-score),[22],0.063
same,glycan array binding signal (z-score),[23],0.787
same,glycan array binding signal (z-score),[24],0.615
same,glycan array binding signal (z-score),[25],-0.375
same,glycan array binding signal (z-score),[26],-0.453
same,glycan array binding signal (z-score),[27],-0.397
same,glycan array binding signal (z-score),[28],-0.451
same,glycan array binding signal (z-score),[29],-0.382
same,glycan array binding signal (z-score),[30],-0.126
same,glycan array binding signal (z-score),[31],0.137
same,glycan array binding signal (z-score),[32],-0.301
same,glycan array binding signal (z-score),[33],-0.273
same,glycan array binding signal (z-score),Gal(b1-4)GlcNAc6P,-0.072
same,glycan array binding signal (z-score),Gal(b1-6)Gal,0.567
same,glycan array binding signal (z-score),Gal3S(b1-3)GalNAc,-0.275
same,glycan array binding signal (z-score),Gal3S(b1-3)GlcNAc,-0.447
same,glycan array binding signal (z-score),[34],-0.237

# — the supplement of paper PMC8728848
